The labels stand for the following.
T1: RBFOX1 RRM (Homo sapiens, UniProt Q9NWB1 109-208)
T1 sequence: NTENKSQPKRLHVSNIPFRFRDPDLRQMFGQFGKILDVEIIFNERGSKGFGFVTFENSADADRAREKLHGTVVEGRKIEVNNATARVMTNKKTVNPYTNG

B1: GGGCACC (DNA:RNA)
RNA: GGGAGACCGGAAUUCAGAUUGUCCGGGCACCUUAAAUCCCGUCGUAGCCACCA
DNA 1: CAATCTGAATTCCGGTCTCCC
DNA 2: TGGTGGCTACGACGGGATT
B2: CGGACUU (DNA:RNA)
RNA: B1 RNA with G25C, C28A, A29C, C30U, C31U
DNA 1: CAATCTGAATTCCGGTCTCCC
DNA 2: TGGTGGCTACGACGGGATT
B3: UCCCUGA (DNA:RNA)
RNA: B1 RNA with G25U, G26C, G27C, A29U, C30G, C31A
DNA 1: CAATCTGAATTCCGGTCTCCC
DNA 2: TGGTGGCTACGACGGGATT
B4: CCUAUGA (DNA:RNA)
RNA: GGGAGACCGGAAUUCAGAUUGUCCCCUAUGAUUAAAUCCCGUCGUAGCCACCA
DNA 1: CAATCTGAATTCCGGTCTCCC
DNA 2: TGGTGGCTACGACGGGATT
B5: AGGCGUU (DNA:RNA)
RNA: B1 RNA with G25A, A29G, C30U, C31U
DNA 1: CAATCTGAATTCCGGTCTCCC
DNA 2: TGGTGGCTACGACGGGATT
B6: GGGGCCU (DNA:RNA)
RNA: B1 RNA with C28G, A29C, C31U
DNA 1: CAATCTGAATTCCGGTCTCCC
DNA 2: TGGTGGCTACGACGGGATT
B7: CAGUUUA (DNA:RNA)
RNA: B4 RNA with C26A, U27G, A28U, G30U
DNA 1: CAATCTGAATTCCGGTCTCCC
DNA 2: TGGTGGCTACGACGGGATT
B8: UGAUGGC (DNA:RNA)
RNA: B1 RNA with G25U, G27A, C28U, A29G, C30G
DNA 1: CAATCTGAATTCCGGTCTCCC
DNA 2: TGGTGGCTACGACGGGATT
B9: UGACUAU (DNA:RNA)
RNA: B1 RNA with G25U, G27A, A29U, C30A, C31U
DNA 1: CAATCTGAATTCCGGTCTCCC
DNA 2: TGGTGGCTACGACGGGATT
B10: AAUCCGC (DNA:RNA)
RNA: B4 RNA with C25A, C26A, A28C, U29C, A31C
DNA 1: CAATCTGAATTCCGGTCTCCC
DNA 2: TGGTGGCTACGACGGGATT
B11: UCUCUAG (DNA:RNA)
RNA: B4 RNA with C25U, A28C, G30A, A31G
DNA 1: CAATCTGAATTCCGGTCTCCC
DNA 2: TGGTGGCTACGACGGGATT
B12: CAUUGCC (DNA:RNA)
RNA: B4 RNA with C26A, A28U, U29G, G30C, A31C
DNA 1: CAATCTGAATTCCGGTCTCCC
DNA 2: TGGTGGCTACGACGGGATT
B13: UUUAUUU (DNA:RNA)
RNA: B4 RNA with C25U, C26U, G30U, A31U
DNA 1: CAATCTGAATTCCGGTCTCCC
DNA 2: TGGTGGCTACGACGGGATT
B14: GACUGUG (DNA:RNA)
RNA: B1 RNA with G26A, G27C, C28U, A29G, C30U, C31G
DNA 1: CAATCTGAATTCCGGTCTCCC
DNA 2: TGGTGGCTACGACGGGATT
B15: GAGUCAA (DNA:RNA)
RNA: B1 RNA with G26A, C28U, A29C, C30A, C31A
DNA 1: CAATCTGAATTCCGGTCTCCC
DNA 2: TGGTGGCTACGACGGGATT
B16: GCUACGG (DNA:RNA)
RNA: B4 RNA with C25G, U29C, A31G
DNA 1: CAATCTGAATTCCGGTCTCCC
DNA 2: TGGTGGCTACGACGGGATT
B17: CUAAAGC (DNA:RNA)
RNA: B4 RNA with C26U, U27A, U29A, A31C
DNA 1: CAATCTGAATTCCGGTCTCCC
DNA 2: TGGTGGCTACGACGGGATT
B18: CCGCCUC (DNA:RNA)
RNA: B1 RNA with G25C, G26C, A29C, C30U
DNA 1: CAATCTGAATTCCGGTCTCCC
DNA 2: TGGTGGCTACGACGGGATT
B19: AACGCGG (DNA:RNA)
RNA: B4 RNA with C25A, C26A, U27C, A28G, U29C, A31G
DNA 1: CAATCTGAATTCCGGTCTCCC
DNA 2: TGGTGGCTACGACGGGATT
B20: UCCGAGC (DNA:RNA)
RNA: B4 RNA with C25U, U27C, A28G, U29A, A31C
DNA 1: CAATCTGAATTCCGGTCTCCC
DNA 2: TGGTGGCTACGACGGGATT
B21: ACGUCAA (DNA:RNA)
RNA: B4 RNA with C25A, U27G, A28U, U29C, G30A
DNA 1: CAATCTGAATTCCGGTCTCCC
DNA 2: TGGTGGCTACGACGGGATT
B22: UAUGAGU (DNA:RNA)
RNA: B4 RNA with C25U, C26A, A28G, U29A, A31U
DNA 1: CAATCTGAATTCCGGTCTCCC
DNA 2: TGGTGGCTACGACGGGATT
B23: CGGUACU (DNA:RNA)
RNA: B1 RNA with G25C, C28U, C31U
DNA 1: CAATCTGAATTCCGGTCTCCC
DNA 2: TGGTGGCTACGACGGGATT
B24: CCUCGAA (DNA:RNA)
RNA: B4 RNA with A28C, U29G, G30A
DNA 1: CAATCTGAATTCCGGTCTCCC
DNA 2: TGGTGGCTACGACGGGATT
B25: CAUUAAG (DNA:RNA)
RNA: B4 RNA with C26A, A28U, U29A, G30A, A31G
DNA 1: CAATCTGAATTCCGGTCTCCC
DNA 2: TGGTGGCTACGACGGGATT
B26: AUAAUCG (DNA:RNA)
RNA: B4 RNA with C25A, C26U, U27A, G30C, A31G
DNA 1: CAATCTGAATTCCGGTCTCCC
DNA 2: TGGTGGCTACGACGGGATT
B27: AGGUACU (DNA:RNA)
RNA: B1 RNA with G25A, C28U, C31U
DNA 1: CAATCTGAATTCCGGTCTCCC
DNA 2: TGGTGGCTACGACGGGATT
B28: AAGCCGC (DNA:RNA)
RNA: B1 RNA with G25A, G26A, A29C, C30G
DNA 1: CAATCTGAATTCCGGTCTCCC
DNA 2: TGGTGGCTACGACGGGATT
B29: AAAUAAG (DNA:RNA)
RNA: B1 RNA with G25A, G26A, G27A, C28U, C30A, C31G
DNA 1: CAATCTGAATTCCGGTCTCCC
DNA 2: TGGTGGCTACGACGGGATT
B30: GUCUCUC (DNA:RNA)
RNA: B1 RNA with G26U, G27C, C28U, A29C, C30U
DNA 1: CAATCTGAATTCCGGTCTCCC
DNA 2: TGGTGGCTACGACGGGATT
B31: UCUUGCC (DNA:RNA)
RNA: B4 RNA with C25U, A28U, U29G, G30C, A31C
DNA 1: CAATCTGAATTCCGGTCTCCC
DNA 2: TGGTGGCTACGACGGGATT

Changes are numbered by the printed parent chain; changes in the protein carry UniProt numbers. The list shows a part of the results.

The target in the assay is T1, RBFOX1 RRM. Nature of the assay: EMSA; HiTS-Eq, 1 nM pool, 10 min; buffer printed only for the single-RNA assays: 10 mM Tris pH 7.5, 150 mM NaCl, 3.4 mM EDTA, 0.001% NP-40, 30 C. To be noted: tags: His6 N-terminal (pET28a); label: 5' 32P. The method in brief: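 Purified RbFox RRM, wild type or mutant, was incubated for 10 min in 50 µL with 1 nM of a 5′-radiolabelled RNA pool carrying 7 randomized nucleotides, whose flanks were annealed to DNA oligonucleotides, over a series of increasing protein concentrations. Unbound RNA was resolved on 8% native PAGE, cut out, reverse-transcribed, barcoded by PCR and sequenced on an Illumina HiSeq 2500. Relative association constants were derived from changes in read counts for each RNA species versus the control reaction and normalised to the cognate motif.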
Take B1: the binding signal is 0.0223 KA relative to UGCAUGU.
For B2 the value was 0.0191 KA relative to UGCAUGU.
With B3 the figure was 0.00782 KA relative to UGCAUGU; with B4, 0.00562 KA relative to UGCAUGU; with B5, 0.0133 KA relative to UGCAUGU.
For B6 the value was 0.0256 KA relative to UGCAUGU; for B7, 0.0027 KA relative to UGCAUGU; for B8, 0.0129 KA relative to UGCAUGU.
For the molecule B9, the binding signal is 0.0127 KA relative to UGCAUGU.
For B10 the value was 0.00133 KA relative to UGCAUGU; for B11, 0.00798 KA relative to UGCAUGU.
In the case of B12, the binding signal is 0.00747 KA relative to UGCAUGU.
Take B13: the binding signal was 0.0073 KA relative to UGCAUGU.
With B14 the figure was 0.0275 KA relative to UGCAUGU; with B15, 0.007 KA relative to UGCAUGU.
For B16 the value was 0.00939 KA relative to UGCAUGU.
For B17 the value was 0.00566 KA relative to UGCAUGU; for B18, 0.0225 KA relative to UGCAUGU; for B19, 0.00805 KA relative to UGCAUGU.
Turning to B20, the binding signal is 0.00748 KA relative to UGCAUGU.
For B21 the value was 0.000907 KA relative to UGCAUGU; for B22, 0.0133 KA relative to UGCAUGU.
For B23 the value was 0.00991 KA relative to UGCAUGU; for B24, 0.00977 KA relative to UGCAUGU.
With B25 the figure was 0.00833 KA relative to UGCAUGU; with B26, 0.00196 KA relative to UGCAUGU; with B27, 0.00602 KA relative to UGCAUGU.
On to B28, for which the binding signal was 0.00379 KA relative to UGCAUGU.
With B29 the figure was 0.00417 KA relative to UGCAUGU.
With B30 the figure was 0.00726 KA relative to UGCAUGU; with B31, 0.0152 KA relative to UGCAUGU.

The values are drawn from publication PMC9911399, “Two distinct binding modes provide the RNA-binding protein RbFox with extraordinary sequence specificity”.
